The values below come from the supplement of paper PMC8047034.

SMILES strings stand for the structures. Counter-ions that a name gives are not always drawn. This is one part of the list. Most values come without repeats; read them as rough.

The assay deals with Ov4Carbo. Briefly: log2 surviving fraction (library drug vs vehicle, or drug + carboplatin vs carboplatin alone; relative to plate median); ovarian cancer lines: OVCAR4 is platinum-sensitive and Ov4Carbo platinum-resistant; higher = more cell survival. The settings on record: library drug concentration 10 µM; 7 days; carboplatin co-treatment 0 µM.
Regarding `CCCC(=O)OCOC(=O)C1=C(C)NC(C)=C(C(=O)OC)C1c1cccc(Cl)c1Cl` (stereo not given) [Cleviprex (Clevidipine)], the log2 surviving fraction worked out at 1.18.

Regarding `C=CCN1CC[C@]23c4c5ccc(O)c4O[C@H]2C(=O)CC[C@@]3(O)[C@H]1C5` [Naloxone HCl], the log2 surviving fraction was determined as 1.42.

With `CC(C)(Oc1ccc(Cl)cc1)C(=O)O` [Clofibric acid], the log2 surviving fraction came out at 0.463.

As for `CCCCCCCCCC(=O)N[C@H]1[C@H](Oc2c3cc4cc2Oc2ccc(cc2Cl)[C@@H](O[C@@H]2O[C@H](CO)[C@@H](O)[C@H](O)[C@H]2NC(C)=O)[C@@H]2NC(=O)[C@H](NC(=O)[C@@H]4NC(=O)[C@H]4NC(=O)[C@@H](Cc5ccc(c(Cl)c5)O3)NC(=O)[C@H](N)c3ccc(O)c(c3)Oc3cc(O)cc4c3)c3ccc(O)c(c3)-c3c(OC4O[C@H](CO)[C@@H](O)[C@H](O)[C@@H]4O)cc(O)cc3[C@@H](C(=O)O)NC2=O)O[C@H](CO)[C@@H](O)[C@@H]1O` (stereo not given in full) [Teicoplanin], the log2 surviving fraction is -0.0426.

As to `Cc1cc(N)c2ccccc2[n+]1CCCCCCCCCC[n+]1c(C)cc(N)c2ccccc21` [Dequalinium chloride], the log2 surviving fraction was -7.01.

In the case of `C/C(=C(\CCOP(=O)(O)O)SC(=O)c1ccccc1)N(C=O)Cc1cnc(C)nc1N` [Benfotiamine], the log2 surviving fraction is 0.65.

Turning to `OC(Cn1cncn1)(Cn1cncn1)c1ccc(F)cc1F` [Fluconazole], the log2 surviving fraction came out at 0.959.

As to `CNCC[C@@H](Oc1ccccc1C)c1ccccc1` [Atomoxetine HCl], the log2 surviving fraction was -1.85.

For the compound `Oc1c(Cl)cc(Cl)c2cccnc12` [Chloroxine], the log2 surviving fraction turned out to be 0.12.

On to `COCCOC(=O)C1=C(C)NC(C)=C(C(=O)OC/C=C/c2ccccc2)C1c1cccc([N+](=O)[O-])c1` (stereo not given) [Cilnidipine], for which the log2 surviving fraction is -2.8.
